PubChem BioAssay AID588855 (National Center for Advancing Translational Sciences (NCATS), 2011)
Where “and” joins values, the source holds several entries; their conditions need not be identical. Equal values may be shown once. Hit rate of the full screen: of about 410,000 compounds, about 5,000 (1.2%) were called active. The inconclusive results got no clear call from the source; some entries with a clear call stand among them for comparison. The call rests on the fitted dose curve; in most records, active means well fitted inhibition curve with a large enough effect; inconclusive means small, poorly fitted or top-dose-only effect; inactive means no such curve, though single readings can be large or run the other way. Where the call is inconclusive, the potency comes from a doubtful curve fit.

Experiment: qHTS for Inhibitors of TGF-b; further: nearly all actives have a fitted effect of over 65% in size
Conditions: HepG2 CAGA-GFP TGF-b/SMAD3 reporter, GFP fluorescence, 18 h, TGF-beta stimulated, 500 pg/mL final; series mostly up to 46.1 µM; activity, negative = inhibition: at the top concentration
In short: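 First, reporter cells (HEPG2 CAGA-GFP) rested 2 h at 37 degrees C. Next, compounds were pinned in and TGF-beta added to 500 pg/mL final. After 18 h, GFP was imaged per cell and summed per well.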
On the % scale 0 is the no-effect control and ±100 the full control effect; potency means the concentration at half of the fitted maximal effect; tags describe the fitted curve by direction and shape.

Structure (SMILES)	Potency	activity, negative = inhibition
Cc1c(C(=O)N2CCC(c3nc4ccccc4s3)CC2)oc2cc(Br)ccc12	inconclusive: 22.4 µM [inhibitor, single point]	–
COc1cc(SC)ccc1C(=O)NCc1ccc(C)cc1	–	inactive: -0.403%
O=C1CC(c2cccc([N+](=O)[O-])c2)c2ccc3ccccc3c2N1 (stereo unspecified)	inconclusive: 35.5 µM [inhibitor, single point]	–
Cn1cccc1/C=C1\SC(=O)N(c2ccccc2)C1=O	–	inactive: 1.72%
CCOC(=O)c1cc(S(=O)(=O)Nc2ccc(Br)c(C)c2)[nH]n1	–	inactive: -27.7%
COc1cc(C2c3c(oc4cc(C)c(C)cc4c3=O)C(=O)N2CCCN2CCOCC2)ccc1O (stereo unspecified)	inconclusive: 8.91 µM [inhibitor, partial curve, poor fit]	–
CCOc1cc(/C=C(\C#N)c2[nH]nc(N)c2C#N)ccc1O	inconclusive: 7.94 µM [inhibitor, partial curve]	–
OCc1ccccc1-c1nc(NCC2CC2)nc2ccsc12	–	inactive: -0.794%
CCOc1ccccc1Oc1cn[nH]c1-c1ccc(OC)cc1O	inconclusive: 17.8 µM [inhibitor, partial curve, poor fit]	–
O=C(Cn1cc(S(=O)(=O)Cc2ccccc2Cl)c2ccccc21)NCc1ccccc1Cl	inconclusive: 15.8 µM [inhibitor, partial curve, poor fit]	–
CCCCCN1CSC(=S)N(Cc2ccccc2)C1	active: 10 µM	–
O=C(CN1C(=O)CCSc2ccc(S(=O)(=O)N3CCCC3)cc21)Nc1ccccc1	inactive	–
Cc1cc(C)nc(N/N=C/c2ccccc2OCc2cccc(Br)c2)n1	inconclusive: 35.5 µM [inhibitor, single point]	–
Cc1ccccc1Oc1ccc2c(c1)[C@@H]1C[C@H](N(C)C(=O)c3ccc(C#N)cc3)[C@H]([C@H](C)O)C(=O)N1CC2	inconclusive: 3.55 µM [inhibitor, full curve, poor fit]	–
CCn1cc(C(=O)NCCCOC(C)C)c(=O)c2cc(S(=O)(=O)N3CCc4ccccc4C3)ccc21	–	inactive: 0.223%
CCOC(=O)C1=C(CN2CC(C)CC(C)C2)NC(=O)NC1c1ccc2c(c1)OCO2 (stereo unspecified)	–	inactive: -9.79%
CCN(CCNC(=O)C1CCCN(S(=O)(=O)c2cnc[nH]2)C1)c1ccccc1 (stereo unspecified)	–	inactive: -12.2%
OC(c1ccccc1)c1ncc(-c2ccc(Cl)cc2)[nH]1 (stereo unspecified)	–	inactive: 2.25%
O=C(C1CN(C(=O)c2cc3cc(Cl)ccc3o2)c2ccccc2O1)N1CCCCC1 (stereo unspecified)	inconclusive: 6.31 µM [inhibitor, full curve, poor fit]	–
CCCCCN(C(=O)CCC(=O)OCc1ccc(C(C)(C)C)cc1)c1c(N)n(CCCC)c(=O)[nH]c1=O	inconclusive: 3.98 µM [inhibitor, full curve]	–
Cc1cccc(OCc2cc(=O)n3c(-c4ccccc4)csc3n2)c1C	inconclusive: 2.82 µM [inhibitor, full curve]	–

Structure (SMILES)	Potency	activity, negative = inhibition
Cn1c(SSc2ccc(-c3cccnc3)n2C)ccc1-c1cccnc1	inconclusive: 35.5 µM [inhibitor, single point]	–
CCCn1c(SCc2nc(-c3ccccc3C)no2)nnc1-c1ccc(Cl)cc1	inconclusive: 15.8 µM [inhibitor, single point]	–
O=C(Nc1ccc(C(F)(F)F)cc1[N+](=O)[O-])O[C@H]1[C@H](Cc2ccccc2)NS(=O)(=O)[C@H]2C[C@@H]3C=C[C@]12O3	inconclusive: 22.4 µM [inhibitor, partial curve, poor fit] and inconclusive: 25.1 µM [inhibitor, single point]	–
CC(NC(=O)C1CCCN1C(=O)OC(C)(C)C)C(=O)OCc1ccccc1 (stereo unspecified)	inconclusive: 35.5 µM [inhibitor, single point]	–
O=C(N/N=C/c1cccc(Oc2ccccc2)c1)c1ccc(O)cc1O	–	inactive: 0%
O=C(Nc1cc(Sc2ccccn2)cc([N+](=O)[O-])c1)c1ccc([N+](=O)[O-])cc1	inconclusive: 8.91 µM [inhibitor, partial curve, poor fit]	–
Cc1ccc(CNC(=O)C(=O)NCC2OCCN2S(=O)(=O)c2ccc3c(c2)OCCO3)cc1 (stereo unspecified)	–	inactive: -15.6%
Cc1ccc2cccc(SCC(=O)Nc3ccc(F)cc3)c2n1	inconclusive: 35.5 µM [inhibitor, single point]	–
O=C(NCc1ccco1)c1cc2n(n1)C(C(F)(F)F)CC(c1ccc(Cl)c(Cl)c1)N2 (stereo unspecified)	inconclusive: 6.31 µM [inhibitor, partial curve, poor fit]	–
Cc1ccc(NC(=O)Cn2nc(C)c3nn(-c4ccc(Cl)cc4)c(C)c3c2=O)cc1C	inconclusive: 6.31 µM [inhibitor, single point]	–
Cc1ccc(-c2cc(-c3ccc(C)cc3O)[nH]n2)cc1	inconclusive: 35.5 µM [inhibitor, single point]	–
CCCCCC(=O)N1CC2(CC(c3cccc(NC(=O)CC(c4ccccc4)c4ccccc4)c3)=NO2)C[C@@H]1C(N)=O (stereo partly specified)	inconclusive: 35.5 µM [inhibitor, single point]	–
CN1CCN(C(=S)Nc2ccc(Cl)c(Cl)c2)CC1	inconclusive: 35.5 µM [inhibitor, single point]	–
Cc1ccsc1CN(C)C(=O)CN1C(=O)NC(c2ccccc2)(c2ccccc2)C1=O	inconclusive: 11.2 µM [inhibitor, partial curve, poor fit]	–
COc1cc(/C=N/NC(=O)c2ccc(CN3c4cccc5cccc(c45)S3(=O)=O)cc2)cc(OC)c1O	inconclusive: 17.8 µM [inhibitor, single point]	–
Cc1c(/C=N/n2cnnc2)c2ccccc2n1CCOc1ccc(Cl)cc1	–	inactive: -2.13%
COc1ccc(NC(=O)CSc2c3c(nc4cc(Cl)ccc24)CCCC3)cc1OC	inconclusive: 35.5 µM [inhibitor, single point]	–
CC(C)(C)n1cnc2cc(NC(=O)c3cccs3)ccc21	–	inactive: 16.1%
CC1=C/C(=N\OS(=O)(=O)c2ccccc2)C(C)=CC1=O	active: 10 µM	–
CC(C)C[C@@H](CN1CCCC1CN1C(=S)NC[C@@H]1Cc1ccc(O)cc1)N1C[C@H](Cc2ccc(O)cc2)N(CC2CCCCC2)C1=S (stereo partly specified)	active: 10 µM	–
